Reference: PubChem BioAssay AID588591 (National Center for Advancing Translational Sciences (NCATS), 2011)
Among all 390,000 compounds or so, about 4,700 (1.2%) were called active. The shares of active, inactive and inconclusive entries below differ from those in the screen. The call rests on the fitted dose curve; in most records, active means well fitted inhibition curve with a large enough effect; inconclusive means small, poorly fitted or top-dose-only effect, or another doubt; inactive means no such curve, though single readings can be large or run the other way. Where the call is inconclusive, the potency comes from a doubtful curve fit. *1 amine or outer side, *2 acyl side, *3 side chain or, on linkers, in order; H or OH if unused. Where a SMILES comes first, the peptide text is derived from it. Bridges are numbered along the chain shown (N, C = ends). [ ]: non-standard residue; d: D form. ξ: configuration not given here. hSer(Ph(2-I,4-NO2,6-CO)) = O=C([C@H](CCOc1c(I)cc([N+](=O)[O-])cc1C(=O)[*:3])N[*:1])[*:2]; ξD = NC(CC(=O)O)C(=O)O

What follows are compounds tested against DNA polymerase eta (Homo sapiens) (UniProt Q9Y253) (assay: qHTS for Inhibitors of Polymerase Eta). Conditions: recombinant Pol eta, fluorescent DNA replication assay; series mostly up to 114 µM; activity change, negative = inhibition: at the top concentration.
UniProt Q9Y253, sequence (Q9Y253 whole entry, looked up): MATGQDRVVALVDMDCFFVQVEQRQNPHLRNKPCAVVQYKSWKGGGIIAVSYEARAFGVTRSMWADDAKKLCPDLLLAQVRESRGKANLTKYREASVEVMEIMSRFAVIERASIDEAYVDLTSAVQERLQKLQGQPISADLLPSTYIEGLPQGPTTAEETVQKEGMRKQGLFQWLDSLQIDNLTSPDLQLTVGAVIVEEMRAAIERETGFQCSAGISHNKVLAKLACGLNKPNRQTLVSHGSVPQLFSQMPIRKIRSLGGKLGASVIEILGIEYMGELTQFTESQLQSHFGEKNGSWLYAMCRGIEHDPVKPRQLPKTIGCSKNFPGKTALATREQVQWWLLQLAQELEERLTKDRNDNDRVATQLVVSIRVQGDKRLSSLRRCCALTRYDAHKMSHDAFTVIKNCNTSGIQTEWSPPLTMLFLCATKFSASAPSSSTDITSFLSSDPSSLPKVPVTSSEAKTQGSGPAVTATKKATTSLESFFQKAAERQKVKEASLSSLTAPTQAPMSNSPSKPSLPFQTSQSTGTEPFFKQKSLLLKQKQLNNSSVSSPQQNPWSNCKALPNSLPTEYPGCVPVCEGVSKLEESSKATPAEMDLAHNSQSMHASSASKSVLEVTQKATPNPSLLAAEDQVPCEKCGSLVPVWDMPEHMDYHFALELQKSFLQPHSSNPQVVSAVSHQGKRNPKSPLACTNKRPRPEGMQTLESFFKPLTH
Procedure, shortened: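 Fluorescent replication assay: 50 nM final substrate added after a 15 min room-temperature compound preincubation with 10 nM enzyme. Signal taken at 0 min and again at 10 min.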
On the % scale 0 is the no-effect control and ±100 the full control effect; potency means the concentration at half of the fitted maximal effect; tags describe the fitted curve by direction and shape.

**Q.** `COc1ccccc1Nc1nn2c(=O)c3ccc(C(=O)NCCc4ccccc4)cc3nc2s1` was tested. Which Potency did it give?
**A.** active: 79.4 µM

**Q.** How did the Potency turn out when `COc1ccc(-c2c3c([nH]c(=S)c2C#N)CCC3)cc1` was run?
**A.** inconclusive: 22.4 µM [inhibitor, full curve]

**Q.** Which Potency does the source give for `Cc1ccc(-c2cc(C(F)(F)F)n3ncc(C(=O)NCc4ccco4)c3n2)cc1` here?
**A.** inconclusive: 11.2 µM [inhibitor, full curve, poor fit]

**Q.** How did the Potency turn out when `COc1ccc(-n2nnc3c(=O)n(CC(=O)Nc4ccc5c(c4)OCCO5)cnc32)cc1OC` was run?
**A.** active: 25.1 µM

**Q.** With `COc1ccc(C)cc1NC(=O)N(C(C)C)C1CCN(C(C)=O)CC1` as the compound, how does the “activity change, negative = inhibition” value read?
**A.** inactive: -13.4%

**Q.** How did the Potency turn out when `COc1cccc(=O)c2c(C)n(CC(=O)c3ccccc3)c(C)c12` was run?
**A.** inconclusive: 79.4 µM [inhibitor, single point]

**Q.** Which “activity change, negative = inhibition” value does the source give for `CCOC(=O)c1sc2nc(C)[nH]c(=S)c2c1C` here?
**A.** inactive: -18.6%

**Q.** Which Potency does the source give for `O=C1CCC(C(=O)Nc2ccc([N+](=O)[O-])cc2)N1` (stereo unspecified) here?
**A.** inconclusive: 20 µM [inhibitor, partial curve, poor fit]

**Q.** With `COc1ccccc1NC(=O)CC(=O)CSc1nnc(-c2ccc(C)cc2)n1-c1ccccc1` as the compound, how does the Potency read?
**A.** inconclusive: 20 µM [inhibitor, partial curve]

**Q.** For `Cc1cc(C)c(-c2c(N)cc(Br)cc2Br)c(N)c1`, which Potency is on record?
**A.** inconclusive: 44.7 µM [inhibitor, partial curve, poor fit]

**Q.** With `COc1ccc(-c2cn3c(n2)sc2cc(C(=O)NCCCN4CCN(C)CC4)ccc23)cc1` as the compound, how does the Potency read?
**A.** inconclusive: 50.1 µM [inhibitor, partial curve]

**Q.** `Cc1cc(C)cc(Oc2c(C(F)(F)F)oc3cc(OCC(=O)O)ccc3c2=O)c1` was tested. Which Potency did it give?
**A.** active: 35.5 µM

**Q.** `CC1Cc2ccccc2N1C(=O)COC(=O)c1ccc(N(C)C)cc1` (stereo unspecified) was tested. Which Potency did it give?
**A.** active: 7.94 µM

**Q.** How did the Potency turn out when `CN(C1=C(NC(=O)c2ccccc2)C(=O)c2ccccc2C1=O)C1CCS(=O)(=O)C1` (stereo unspecified) was run?
**A.** active: 79.4 µM

**Q.** How did the Potency turn out when `O=C(/C=C/c1cccc2ccccc12)c1ccncc1` was run?
**A.** inconclusive: 28.2 µM [inhibitor, partial curve, poor fit]

**Q.** With `O=C1C(=C(I)I)c2ccccc2-c2ccccc21` as the compound, how does the Potency read?
**A.** active: 22.4 µM

**Q.** With `Cc1ccc(Cl)cc1N1CCN(C(=O)CSc2ccsc2[N+](=O)[O-])CC1` as the compound, how does the Potency read?
**A.** active: 22.4 µM

**Q.** Which Potency does the source give for `COc1ccccc1C(=O)N/C(=C/c1ccco1)C(=O)Nc1cccc(C(=O)O)c1` here?
**A.** active: 20 µM

**Q.** `Cc1occc1C(=O)NCCCc1ccccc1` was tested. Which Potency did it give?
**A.** inconclusive: 25.1 µM [inhibitor, partial curve, poor fit]

**Q.** `Cc1ccc(C2Nc3cccc4cccc(c34)N2)s1` was tested. Which Potency did it give?
**A.** inconclusive: 11.2 µM [inhibitor, partial curve, poor fit]

**Q.** `O=c1c2ccc(Cl)cc2[nH]c(=S)n1Cc1cccnc1` was tested. Which Potency did it give?
**A.** inconclusive: 25.1 µM [inhibitor, full curve, poor fit]

**Q.** How did the Potency turn out when `O=C(O)Cc1ccc(-n2cccc2)cc1` was run?
**A.** active: 3.55 µM

**Q.** For `Cc1ccc(NC(=O)CN2C(=O)N/C(=C/c3ccco3)C2=O)cc1`, which Potency is on record?
**A.** inconclusive: 5.01 µM [inhibitor, full curve, poor fit]

**Q.** With `O=C(O)c1cn[nH]c1-c1cccc([N+](=O)[O-])c1` as the compound, how does the Potency read?
**A.** active: 20 µM

**Q.** Which Potency does the source give for `COc1cccc(C(=O)Nc2cccc(C(=O)NC3=NN(c4c(Cl)cc(Cl)cc4Cl)C(=O)C3)c2)c1` here?
**A.** active: 39.8 µM

**Q.** Which Potency does the source give for `Cc1nn(Cc2ccc(Cl)cc2)c(C)c1NC(=O)Cn1nc([N+](=O)[O-])c(Cl)c1C` here?
**A.** inconclusive: 22.4 µM [inhibitor, partial curve]

**Q.** How did the “activity change, negative = inhibition” value turn out when `Cc1ccccc1N1CC(C(=O)Nc2ccc(S(=O)(=O)NCC3CCCO3)cc2)CC1=O` (stereo unspecified) was run?
**A.** inactive: -5.54%

**Q.** For `N#CC1=C(S)N(c2ccccc2)C(c2ccc(-c3cccc(Cl)c3)o2)NC1=O` (stereo unspecified), which Potency is on record?
**A.** inconclusive: 39.8 µM [inhibitor, partial curve, poor fit]

**Q.** `COc1ccc(-c2nn(-c3ccccc3)cc2/C=C2/SC(=S)N(CCC(=O)O)C2=O)c(C)c1` was tested. Which Potency did it give?
**A.** active: 31.6 µM

**Q.** `CCOc1ccc2c(ccc(/C=C/c3cc(C)c4cccnc4c3O)[n+]2C)c1` was tested. Which Potency did it give?
**A.** active: 20 µM

**Q.** For `NS(=O)(=O)c1ccc(CCNC(=O)COC(=O)c2ccc([N+](=O)[O-])o2)cc1`, which Potency is on record?
**A.** inconclusive: 56.2 µM [inhibitor, partial curve, poor fit]

**Q.** How did the Potency turn out when `CNc1ccc(/C=C2\COc3ccccc3C2=O)cc1[N+](=O)[O-]` was run?
**A.** inconclusive: 17.8 µM [inhibitor, partial curve, poor fit]

**Q.** Which Potency does the source give for `COc1ccc(Cc2nc3ccccc3n2CC(=O)N/N=C/c2ccc(C)cc2O)cc1OC` here?
**A.** inconclusive: 39.8 µM [inhibitor, partial curve, poor fit]

**Q.** Which Potency does the source give for `N#C/C(=C/c1cccc([N+](=O)[O-])c1)c1nnc2n1CCCCC2` here?
**A.** inconclusive: 89.1 µM [inhibitor, single point]

**Q.** Which Potency does the source give for `Cc1cc(C)c2nc(N3CCCN(C(=O)c4ccco4)CC3)c(C#N)cc2c1` here?
**A.** inconclusive: 20 µM [inhibitor, full curve, poor fit]

**Q.** How did the Potency turn out when `COc1cccc(C2C3=C(N=c4s/c(=C\c5ccc(OCC(=O)O)cc5)c(=O)n42)c2ccccc2CC3)c1` (stereo unspecified) was run?
**A.** active: 89.1 µM

**Q.** Which “activity change, negative = inhibition” value does the source give for `COc1cc(OC)c(N2CC(C(=O)NCCC3=CCCCC3)CC2=O)cc1Cl` (stereo unspecified) here?
**A.** inactive: -7.55%

**Q.** Which “activity change, negative = inhibition” value does the source give for `CCc1ccc(S(=O)(=O)c2nnn3c2nc(N(CC)Cc2ccccc2)c2cc(Cl)ccc23)cc1` here?
**A.** inactive: -14.7%

**Q.** `Cc1cc2nc(C)c(Cl)c(=O)n2[nH]1` was tested. Which Potency did it give?
**A.** inconclusive: 79.4 µM [inhibitor, partial curve, poor fit]

**Q.** How did the “activity change, negative = inhibition” value turn out when `O=S(=O)(Cc1cc(NCc2ccccc2)nc(-c2ccccn2)n1)c1ccccc1` was run?
**A.** inactive: -6.41%

**Q.** How did the “activity change, negative = inhibition” value turn out when `CCCCCCCCN1[C@@H](CC(=O)O)c2cc(C(F)(F)F)ccc2S1(=O)=O` was run?
**A.** inactive: -2.38%

**Q.** Which Potency does the source give for `COc1cc2c(cc1OC)C(COc1cc(C)cc(C)c1)N(C(=O)C(C)(C)C)CC2` (stereo unspecified) here?
**A.** inconclusive: 50.1 µM [inhibitor, partial curve, poor fit]

**Q.** For `COCCCNC1=C(C#N)C(=O)NC2(CCCC2)S1`, which “activity change, negative = inhibition” value is on record?
**A.** inactive: -4.71%

**Q.** `CC(=O)N1CCc2c(sc3c2c(=O)n(-c2ccccc2C)c(=O)n3CC(=O)Nc2ccccc2)C1` was tested. Which “activity change, negative = inhibition” value did it give?
**A.** inactive: -2.03%

**Q.** Which Potency does the source give for `O=C(Nc1nnc(SCCC2OCCO2)s1)C1CC(=O)N(c2ccc(F)cc2)C1` (stereo unspecified) here?
**A.** active: 20 µM

**Q.** `C[C@@H]1NC(=O)c2cc([N+](=O)[O-])cc(I)c2OCC[C@@H](C(=O)NC(CC(=O)O)C(N)=O)NC(=O)[C@H](CCC(=O)O)NC1=O` (stereo partly specified) (AE[hSer(Ph(2-I,4-NO2,6-CO))][ξD]-NH2; lactam N-3) was tested. Which Potency did it give?
**A.** active: 17.8 µM

**Q.** `Cn1c(=O)sc2cc(NS(=O)(=O)c3ccc(C(C)(C)C)cc3)ccc21` was tested. Which “activity change, negative = inhibition” value did it give?
**A.** inactive: -13.2%

**Q.** For `O=[N+]([O-])c1ccc(N/N=C\c2cccnc2)nc1`, which Potency is on record?
**A.** inconclusive: 35.5 µM [inhibitor, partial curve, poor fit]

**Q.** How did the Potency turn out when `CC1CCCC(NC(=O)CCNC(=O)c2ccccc2Cl)C1C` (stereo unspecified) was run?
**A.** inconclusive: 3.16 µM [inhibitor, partial curve, poor fit]

**Q.** `COC(=O)c1cc(C(=O)NC(C)(C)CC(C)(C)C)cc([N+](=O)[O-])c1` was tested. Which Potency did it give?
**A.** inconclusive: 100 µM [inhibitor, partial curve, poor fit]

**Q.** `COc1ccc(N(C(C)C(=O)N2CCC(Cc3ccccc3)CC2)S(C)(=O)=O)cc1` (stereo unspecified) was tested. Which Potency did it give?
**A.** inconclusive: 79.4 µM [inhibitor, partial curve, poor fit]

**Q.** How did the Potency turn out when `COc1ccc(-c2nn(C)c3sc(C(=O)NCc4ccco4)cc23)cc1OC` was run?
**A.** inconclusive: 22.4 µM [inhibitor, partial curve]

**Q.** Which Potency does the source give for `COc1ccc(-c2nnc3ccc(SCC(=O)Nc4nc5ccccc5s4)nn23)cc1OC` here?
**A.** inconclusive: 31.6 µM [inhibitor, single point]

**Q.** `COC(=O)c1ccc(CSc2nnc(SCc3ccc(C(=O)OC)o3)s2)o1` was tested. Which Potency did it give?
**A.** inconclusive: 89.1 µM [inhibitor, partial curve]

**Q.** `Cc1cc(NS(=O)(=O)c2ccc(NC(=O)COc3cc(C)c(Br)cc3C(C)C)cc2)no1` was tested. Which Potency did it give?
**A.** inconclusive: 89.1 µM [inhibitor, partial curve, poor fit]

**Q.** How did the Potency turn out when `O=C(Nc1ccc2oc(-c3cccnc3)nc2c1)c1ccco1` was run?
**A.** inconclusive: 15.8 µM [inhibitor, partial curve, poor fit]

**Q.** Which Potency does the source give for `COc1ccc(/C=C2\SC(=Nc3ccccc3OC)NC2=O)cc1` here?
**A.** active: 79.4 µM

**Q.** With `CCCC1Oc2ccccc2C(=O)N(CC(=O)c2ccc3c(c2)OCCO3)C1=O` (stereo unspecified) as the compound, how does the Potency read?
**A.** inconclusive: 79.4 µM [inhibitor, partial curve, poor fit]

**Q.** `O=C(c1ccc2ccccc2c1)N1CCN(Cc2ccccc2)CC1` was tested. Which Potency did it give?
**A.** inconclusive: 100 µM [inhibitor, partial curve, poor fit]

**Q.** How did the Potency turn out when `O=[N+]([O-])c1ccc(O)c(-c2cc(C(F)(F)F)nc(-c3ccccc3)n2)c1` was run?
**A.** inconclusive: 39.8 µM [inhibitor, single point]

**Q.** Which “activity change, negative = inhibition” value does the source give for `CCc1ccccc1NC(=O)CCNC(=O)Cn1ccc2ccccc2c1=O` here?
**A.** inactive: 4.84%

**Q.** With `CCc1cccc(NC(=O)C2CCN(c3ncnc4sc(C)c(C)c34)CC2)c1` as the compound, how does the Potency read?
**A.** inconclusive: 79.4 µM [inhibitor, partial curve, poor fit]

**Q.** With `CCCCN(CCCC)C(=O)c1c[nH]c2ccc(S(=O)(=O)Nc3cccc(Cl)c3C)cc2c1=O` as the compound, how does the Potency read?
**A.** active: 39.8 µM

**Q.** With `CCOC(=O)C1=C(N)Oc2cc(O)ccc2C1c1cccc([N+](=O)[O-])c1` (stereo unspecified) as the compound, how does the Potency read?
**A.** inconclusive: 39.8 µM [inhibitor, partial curve, poor fit]

**Q.** Which Potency does the source give for `C=C/C(C)=C/C[C@H]1C(=C)CCC2[C@](C)(C(=O)O)CCC[C@@]21C` (stereo partly specified) here?
**A.** active: 8.91 µM

**Q.** How did the Potency turn out when `CN(CC(=O)Nc1ccc(Cl)cc1)CC(=O)Nc1cccc(Br)c1` was run?
**A.** inconclusive: 89.1 µM [inhibitor, partial curve, poor fit]
